# The list shows a part of the results.
# Tests used:
# Test in all cases: glycan array binding signal (z-score within array); higher = stronger binding
# Conditions in all cases: glycan notation: IUPAC condensed, linker removed; mutation: Y228W
# [1] = target: Neu5Ac(a2-6)Gal(b1-4)GlcNAc(b1-3)Gal(b1-4)GlcNAc(b1-3)Gal(b1-4)GlcNAc(b1-2)Man(a1-3)[Neu5Ac(a2-6)Gal(b1-4)GlcNAc(b1-3)Gal(b1-4)GlcNAc(b1-3)Gal(b1-4)GlcNAc(b1-2)Man(a1-6)]GalNAc
# Summary of the method: (§1)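 Columns mapping to the same glycan were averaged after glycan names were converted to IUPAC-condensed notation. The data come from 3228 arrays in the Consortium for Functional Glycomics database, limited to those with an available protein sequence. Binding is reported as a within-array Z-score averaged across arrays of one protein sequence and across linkers.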
# [2] = target: Neu5Ac(a2-6)Gal(b1-4)GlcNAc(b1-3)Gal(b1-4)GlcNAc(b1-3)GalNAc
# Summary of the method: as §1
# [3] = target: Neu5Ac(a2-6)Gal(b1-4)GlcNAc(b1-3)Gal(b1-4)GlcNAc(b1-3)[Neu5Ac(a2-6)Gal(b1-4)GlcNAc(b1-3)Gal(b1-4)GlcNAc(b1-6)]GalNAc
# Summary of the method: as §1
# [4] = target: Neu5Ac(a2-6)Gal(b1-4)GlcNAc(b1-3)Gal(b1-4)GlcNAc(b1-6)[Gal(b1-3)]GalNAc
# Summary of the method: as §1
# [5] = target: Neu5Ac(a2-6)Gal(b1-4)GlcNAc(b1-3)Gal(b1-4)[Fuc(a1-3)]GlcNAc(b1-3)Gal(b1-4)[Fuc(a1-3)]GlcNAc
# Summary of the method: as §1
# [6] = target: Neu5Ac(a2-6)Gal(b1-4)GlcNAc(b1-3)GalNAc
# Summary of the method: as §1
# [7] = target: Neu5Ac(a2-6)Gal(b1-4)GlcNAc(b1-3)[Neu5Ac(a2-6)Gal(b1-4)GlcNAc(b1-6)]GalNAc
# Summary of the method: as §1
# [8] = target: Neu5Ac(a2-6)Gal(b1-4)GlcNAc(b1-6)GalNAc
# Summary of the method: as §1
# [9] = target: Neu5Ac(a2-6)Gal(b1-4)GlcNAc(b1-6)[Gal(b1-3)GlcNAc(b1-3)]Gal(b1-4)Glc
# Summary of the method: as §1
# [10] = target: Neu5Ac(a2-6)Gal(b1-4)GlcNAc(b1-6)[Gal(b1-3)]GalNAc
# Summary of the method: as §1
# [11] = target: Neu5Ac(a2-6)Gal(b1-4)GlcNAc6S
# Summary of the method: as §1
# Neu5Ac(a2-6)GalNAc = target: Neu5Ac(a2-6)GalNAc
# Summary of the method: as §1
# [12] = target: Neu5Ac(a2-6)GalNAc(b1-4)GlcNAc
# Summary of the method: as §1
# [13] = target: Neu5Ac(a2-6)GalNAc(b1-4)GlcNAc6S
# Summary of the method: as §1
# [14] = target: Neu5Ac(a2-6)GlcNAc(b1-4)GlcNAc
# Summary of the method: as §1
# [15] = target: Neu5Ac(a2-6)GlcNAc(b1-4)GlcNAc(b1-4)GlcNAc
# Summary of the method: as §1
# Neu5Ac(a2-8)Neu5Ac = target: Neu5Ac(a2-8)Neu5Ac
# Summary of the method: as §1
# [16] = target: Neu5Ac(a2-8)Neu5Ac(a2-3)Gal(b1-3)GalNAc(b1-4)[Neu5Ac(a2-3)]Gal(b1-4)Glc
# Summary of the method: as §1
# [17] = target: Neu5Ac(a2-8)Neu5Ac(a2-3)Gal(b1-3)GalNAc(b1-4)[Neu5Ac(a2-8)Neu5Ac(a2-3)]Gal(b1-4)Glc
# Summary of the method: as §1
# [18] = target: Neu5Ac(a2-8)Neu5Ac(a2-3)Gal(b1-4)Glc
# Summary of the method: as §1
# [19] = target: Neu5Ac(a2-8)Neu5Ac(a2-3)Gal(b1-4)GlcNAc
# Summary of the method: as §1
# [20] = target: Neu5Ac(a2-8)Neu5Ac(a2-3)[Gal(b1-3)GalNAc(b1-4)]Gal(b1-4)Glc
# Summary of the method: as §1
# [21] = target: Neu5Ac(a2-8)Neu5Ac(a2-3)[GalNAc(b1-4)]Gal(b1-4)Glc
# Summary of the method: as §1
# [22] = target: Neu5Ac(a2-8)Neu5Ac(a2-8)Neu5Ac
# Summary of the method: as §1
# [23] = target: Neu5Ac(a2-8)Neu5Ac(a2-8)Neu5Ac(a2-3)Gal(b1-4)Glc
# Summary of the method: as §1
# [24] = target: Neu5Ac(a2-8)Neu5Ac(a2-8)Neu5Ac(a2-3)[Gal(b1-3)GalNAc(b1-4)]Gal(b1-4)Glc
# Summary of the method: as §1
# [25] = target: Neu5Ac(a2-8)Neu5Ac(a2-8)Neu5Ac(a2-3)[GalNAc(b1-4)]Gal(b1-4)Glc
# Summary of the method: as §1
# [26] = target: Neu5Ac(a2-8)Neu5Ac(a2-8)Neu5Ac(a2-8)Neu5Ac(a2-3)[GalNAc(b1-4)]Gal(b1-4)Glc
# Summary of the method: as §1
# [27] = target: Neu5Ac(a2-8)Neu5Gc(a2-3)Gal(b1-4)GlcNAc
# Summary of the method: as §1
# [28] = target: Neu5Ac(b2-6)Gal(b1-4)GlcNAc
# Summary of the method: as §1
# Neu5Ac(b2-6)GalNAc = target: Neu5Ac(b2-6)GalNAc
# Summary of the method: as §1
# [29] = target: Neu5Ac9Ac(a2-3)Gal(b1-3)GlcNAc
# Summary of the method: as §1
# [30] = target: Neu5Ac9Ac(a2-3)Gal(b1-4)GlcNAc
# Summary of the method: as §1
# [31] = target: Neu5Ac9Ac(a2-6)Gal(b1-4)GlcNAc
# Summary of the method: as §1
# [32] = target: Neu5Gc(a2-3)Gal(b1-3)GlcNAc
# Summary of the method: as §1
# [33] = target: Neu5Gc(a2-3)Gal(b1-3)[Fuc(a1-4)]GlcNAc
# Summary of the method: as §1
# Neu5Gc(a2-3)Gal(b1-4)Glc = target: Neu5Gc(a2-3)Gal(b1-4)Glc
# Summary of the method: as §1
# [34] = target: Neu5Gc(a2-3)Gal(b1-4)GlcNAc
# Summary of the method: as §1
# [35] = target: Neu5Gc(a2-3)Gal(b1-4)GlcNAc(b1-3)Gal(b1-4)GlcNAc(b1-2)Man(a1-3)[Neu5Gc(a2-3)Gal(b1-4)GlcNAc(b1-3)Gal(b1-4)GlcNAc(b1-2)Man(a1-6)]Man(b1-4)GlcNAc(b1-4)GlcNAc
# Summary of the method: as §1
# [36] = target: Neu5Gc(a2-3)Gal(b1-4)[Fuc(a1-3)]GlcNAc
# Summary of the method: as §1
# [37] = target: Neu5Gc(a2-6)Gal(b1-4)GlcNAc
# Summary of the method: as §1
# Neu5Gc(a2-6)GalNAc = target: Neu5Gc(a2-6)GalNAc
# Summary of the method: as §1
# [38] = target: Neu5Gc(a2-8)Neu5Ac(a2-3)Gal(b1-4)GlcNAc
# Summary of the method: as §1
# [39] = target: Neu5Gc(a2-8)Neu5Gc(a2-3)Gal(b1-4)GlcNAc
# Summary of the method: as §1
# [40] = target: Neu5Gc(a2-8)Neu5Gc(a2-3)Gal(b1-4)GlcNAc(b1-3)Gal(b1-4)GlcNAc
# Summary of the method: as §1
# [41] = target: Neu5Gc(a2-8)Neu5Gc(a2-6)Gal(b1-4)GlcNAc
# Summary of the method: as §1
# [42] = target: Neu5Gc(b2-6)Gal(b1-4)GlcNAc
# Summary of the method: as §1
binder,measurement,setting,value
"Epa1-NP-mutant-Y228W (Candida glabrata), Q6VBJ0 (protein) MILNPALFLNKCVCIYTTLILLLLTNGGYATSSNDISLASKDPTTFPLGCSPDITTPKKGLSMELYSYDFRKKGSYPCWDAAYLDPNYPRTGYKSHRLLAKVDGVTGNINFYYHATKGCTPQLGHLPASYNYPKPLTMTNFTMLLYGYFRPKVTGFHTFTISADDLLFVNFGAGNAFDCCRRDSSADHFGNYQAYAIWGSKTAKDELTVHLDAGVYYPIRLFYNNREWDGALSFTFKTESNENTVSDFSEYFFSLDDTEEGCPGLISYDSSCASVKTSKIIGIDYHTETPNENLVPITKTIYHLGIPCTGTTTTPLCGSGFYDPLANKCVTINTSSTSSVTKTTSHTTSKEVSFHSSISSQKTLIPKSIPSPYGPIKSQSIPTEMETSSEISSSEYAFSDVISTPSHSPYTKKHSSLNSSSYTSTVIHSLTSYSISQGIFSTSLSEQNITSKSSTDKFSTATSMSNNITQSSIIISQFSTNNENYTTTSMHTSSDKISTETLNNSISTTTSILFSNSSTILKNNTTIISSDKDTHYHPVNPTIVCSTNKTEIICASITQPSISNSNNHWSSSVLKFNSTTVRSTLPSSAGSNETSINVPFSSSTESNTSTSSTSTSNSKMVRSTLPSSAGSNETSISVPFSSSTESNTSTSSTSTSNSKMVRSTLPSSAGSNETSINVPFSSSTESNTSTSSTSTSNSKTVRSTPFSSAGIIMTSLSQRNNKSASSYASSNSKCYNTADSCRKVHSTPSYLLTSSYTSEGVDYDCSLVSTKLKINDTNCVNNKHTTKSCLKTSVTTTIPTLEIKTARKSSSNTIGLHSYPTSSPNKSISSAPIIGYISSFKTIKTASPSYQTSDLTTITTITSLNNPGSTAVENTHESNDKSRKTSSNDISSKHSVIKETKDAVESSNKSHQTNTLKCSSIIIASSSHNSYESLGGTTLTLTLSKVYSPQNNDTLPFLEISEVNPSRTVLPESSKMMQYLTSTEERNKTARNTIATNIVSISTFHFEGEGNAIRMGYTQLLLMLIGIIVMNIGT",glycan array binding signal (z-score),[1],0.26
same,glycan array binding signal (z-score),[2],-0.181
same,glycan array binding signal (z-score),[3],-0.101
same,glycan array binding signal (z-score),[4],-0.114
same,glycan array binding signal (z-score),[5],-0.074
same,glycan array binding signal (z-score),[6],-0.194
same,glycan array binding signal (z-score),[7],-0.269
same,glycan array binding signal (z-score),[8],0.104
same,glycan array binding signal (z-score),[9],0.054
same,glycan array binding signal (z-score),[10],-0.013
same,glycan array binding signal (z-score),[11],-0.214
same,glycan array binding signal (z-score),Neu5Ac(a2-6)GalNAc,-0.281
same,glycan array binding signal (z-score),[12],-0.458
same,glycan array binding signal (z-score),[13],-0.172
same,glycan array binding signal (z-score),[14],-0.241
same,glycan array binding signal (z-score),[15],-0.208
same,glycan array binding signal (z-score),Neu5Ac(a2-8)Neu5Ac,-0.272
same,glycan array binding signal (z-score),[16],-0.364
same,glycan array binding signal (z-score),[17],-0.095
same,glycan array binding signal (z-score),[18],-0.151
same,glycan array binding signal (z-score),[19],-0.369
same,glycan array binding signal (z-score),[20],0.355
same,glycan array binding signal (z-score),[21],-0.26
same,glycan array binding signal (z-score),[22],-0.096
same,glycan array binding signal (z-score),[23],-0.257
same,glycan array binding signal (z-score),[24],-0.185
same,glycan array binding signal (z-score),[25],-0.209
same,glycan array binding signal (z-score),[26],0.046
same,glycan array binding signal (z-score),[27],-0.494
same,glycan array binding signal (z-score),[28],-0.415
same,glycan array binding signal (z-score),Neu5Ac(b2-6)GalNAc,0.033
same,glycan array binding signal (z-score),[29],-0.367
same,glycan array binding signal (z-score),[30],-0.341
same,glycan array binding signal (z-score),[31],-0.174
same,glycan array binding signal (z-score),[32],-0.369
same,glycan array binding signal (z-score),[33],-0.024
same,glycan array binding signal (z-score),Neu5Gc(a2-3)Gal(b1-4)Glc,-0.105
same,glycan array binding signal (z-score),[34],-0.19
same,glycan array binding signal (z-score),[35],-0.218
same,glycan array binding signal (z-score),[36],-0.107
same,glycan array binding signal (z-score),[37],-0.138
same,glycan array binding signal (z-score),Neu5Gc(a2-6)GalNAc,-0.318
same,glycan array binding signal (z-score),[38],-0.194
same,glycan array binding signal (z-score),[39],-0.269
same,glycan array binding signal (z-score),[40],-0.388
same,glycan array binding signal (z-score),[41],-0.112
same,glycan array binding signal (z-score),[42],-0.105
